Tests used:
H1N1N09 = experiment: Influenza virucidal assay; set-up: key: V: Virucidal; S: Virustatic; NA: No virucidal Activity; details: virucidal titration at 90–99% viral inhibition concentration, MDCK cells
[1] = biological target: recombinant H1N1 (A/California/04/2009) hemagglutinin (HA1) (Influenza A virus, UniProt C3W5S1); experiment: Isothermal titration calorimetry with HA1; type: binding, influenza virus H1N1 (A/California/04/2009)
H3N2 = system: H3N2; set-up: key: V: Virucidal; S: Virustatic; NA: No virucidal Activity
FluB = system: FluB; set-up: key: V: Virucidal; S: Virustatic; NA: No virucidal Activity
H1N1 clinical = system: H1N1 clinical; set-up: key: V: Virucidal; S: Virustatic; NA: No virucidal Activity
HSV-2 = HSV-2 virucidal assay; set-up: key: V: Virucidal; S: Virustatic; NA: No virucidal Activity; details: virucidal titration at 90–99% viral inhibition concentration, Vero cells
HSV-1 = system: HSV-1; set-up: key: V: Virucidal; S: Virustatic; NA: No virucidal Activity

SMILES	Virucidal activity, H1N1N09 (H1N1N09)	Kd [1]	-∆TS (HA1) ([1]; ITC, 25°C)	∆G (HA1) ([1]; ITC, 25°C)	∆H (HA1) ([1]; ITC, 25°C)	Virucidal activity, H3N2 (H3N2)	Virucidal activity, FluB (FluB)	Virucidal activity, H1N1 clinical (H1N1 clinical)	Virucidal activity, HSV-2 (HSV-2)	Virucidal activity, V-1 (HSV-1)	Kd (HA1) ([1]; ITC, 25°C)
O=S(=O)(O)CCCCCCCCCCCSCc1cc2c(cc1CSCCCCCCCCCCCS(=O)(=O)O)OCCOCCOc1cc(CSCCCCCCCCCCCS(=O)(=O)O)c(CSCCCCCCCCCCCS(=O)(=O)O)cc1OCCOCCO2 [C4C11SO3]	V	29.1 µM	-0.223 kcal/mol	-6.19 kcal/mol	-5.97 kcal/mol	V	V	V	V	V	–
O=S(=O)(O)CCCCCCSCc1cc(CSCCCCCCS(=O)(=O)O)cc(CSCCCCCCS(=O)(=O)O)c1 [B3C6SO3]	–	–	–	–	–	–	–	–	–	–	No binding
O=S(=O)(O)OCCCCCCCCCCCSCc1cc(CSCCCCCCCCCCCOS(=O)(=O)O)cc(CSCCCCCCCCCCCOS(=O)(=O)O)c1 [B3C11SO4]	V	16.9 µM	5.81 kcal/mol	-6.51 kcal/mol	-12.3 kcal/mol	V	V	V	V	V	–
O=S(=O)(O)CCCCCCCCCCCSCc1cc(CSCCCCCCCCCCCS(=O)(=O)O)cc(CSCCCCCCCCCCCS(=O)(=O)O)c1 [B3C11SO3]	–	17.1 µM	0.462 kcal/mol	-6.5 kcal/mol	-6.97 kcal/mol	–	–	–	–	–	–
O=S(=O)(O)OCCCCCCCCCCCSCc1cc2c(cc1CSCCCCCCCCCCCOS(=O)(=O)O)OCCOCCOc1cc(CSCCCCCCCCCCCOS(=O)(=O)O)c(CSCCCCCCCCCCCOS(=O)(=O)O)cc1OCCOCCO2 [C4C11SO4]	V	23.3 µM	0.385 kcal/mol	-6.32 kcal/mol	-6.7 kcal/mol	V	–	V	V	V	–
O=S(=O)(O)OCCCCCCSCc1cc(CSCCCCCCOS(=O)(=O)O)cc(CSCCCCCCOS(=O)(=O)O)c1 [B3C6SO4]	V	26.6 µM	-0.012 kcal/mol	-6.24 kcal/mol	-6.23 kcal/mol	–	–	–	V	V	–
